Reference: ChEMBL document CHEMBL1156829
The full ranking holds about 5,400 compounds; the median of “IFI” is about 2, and the highest 2% start at about 22. The list shows a part of the results.

assay: NOVARTIS: Inhibition Frequency Index (IFI) - the number of HTS assays where a compound showed > 50% inhibition/induction, expressed as a percentage of the number of assays in which the compound was tested.; format: functional

Going from O=C1C2=C(Nc3ccccc3SC2c2ccc(OCc3ccccc3)cc2)c2ccccc21 (stereo not given) to CCOc1ccccc1-n1c(C(C)N(CCc2ccccc2)C(=O)c2ccc(Br)cc2)nc2ccccc2c1=O (stereo not given), the IFI falls from 18.2% to 5.71%.

Cc1cc(I)ccc1NC(=O)CNC(=O)OCc1ccccc1 and CCOC(=O)c1c(C)n(-c2ccccc2)c2ccc(OC(=O)C3CC3)cc12 are the same in IFI: 0% for the first, 0% for the second.

COc1ccc(C2C(C(=O)Nc3cc(C)on3)c3ccccc3C(=O)N2C2CCCCC2)cc1 (stereo not given) and CCC(C)NC(=O)c1nn(-c2ccc(OC)cc2)c(=O)c2ccccc12 (stereo not given) are the same in IFI: 0% for the first, 0% for the second.

CCN(C(C)=O)C1=C(N2CCOCC2)C(=O)c2ccccc2C1=O and CCOC(=O)c1c(C)oc2c1c1c(c3ccccc32)OCN(C2CCCC2)C1 are the same in IFI: 0% for the first, 0% for the second.

Compared with O=S(=O)(NC1=CC2C(=Nc3ccc(NS(=O)(=O)c4ccc(Br)cc4)cc3N2c2ccccc2)C=C1)c1ccc(Br)cc1 (stereo not given), CCCN(CCC)S(=O)(=O)c1ccc(C(=O)Nc2ccccc2C(=O)Oc2ccc3c(c2)c(C(=O)OCC)c(C)n3-c2ccccc2)cc1 is lower in IFI: 7.14% for the first, 5.56% for the second.

First: CCOC(=O)c1[nH]c(C)c(Cc2ccc(OCC)cc2)c1C
Second: CCOc1ccc(CN(C(=O)C(C)(C)CCl)C(C)CCCN(CC)CC)cc1 (stereo not given)
The IFI of the first is lower: 1.51% for the first, 1.83% for the second.

Going from c1cn2c(-c3ccc(N4CCOCC4)cc3)cnc2c(NCc2ccc3c(c2)OCO3)n1 to Oc1ccc(-c2cncc(NCc3ccc4c(c3)OCO4)c2)cc1, the IFI rises from 0% to 3.33%.

Going from CCCSc1nc(N)c2c3c(sc2n1)CN(CCC)CC3 to Cc1cccc(NC(=O)c2sc3nc4c(c(-c5cccs5)c3c2N)CCCCC4)c1, the IFI falls from 12% to 3.8%.

Cc1cc(OC(C)C(=O)N2CCc3ccccc32)ccc1Cl (stereo not given) and Nc1cc(OC(=O)c2ccccc2)nn1S(=O)(=O)c1ccc(Cl)cc1 are the same in IFI: 0% for the first, 0% for the second.

Compared with c1ccc(CCCNc2ccnc3cc4ccccc4cc23)cc1, CCC(Sc1nc(C)cc(-c2ccccc2)n1)C(=O)Nc1cccc2ccccc12 (stereo not given) is lower in IFI: 13.6% for the first, 0% for the second.

Compared with O=C(Nc1ccc(-c2nc3ccccc3[nH]2)cc1)c1ccccc1Oc1ccccc1, O=C(Nc1cc(Oc2ccc(F)cc2)cc([N+](=O)[O-])c1)c1nc2nc(-c3ccccc3)cc(C(F)(F)F)n2n1 is lower in IFI: 6.74% for the first, 0% for the second.

Compared with Cc1nc2cc(-c3ccc(F)cc3)nn2c(NCCCn2ccnc2)c1C, CCCCN(CCCC)CC(O)c1cc(-c2ccc(Cl)cc2)nc2cc(Cl)ccc12 (stereo not given) is higher in IFI: 0% for the first, 3.28% for the second.

CCOC(=O)c1cnc2ccc(OC)cc2c1Cl and COC(=O)c1ccc(C=NNc2cc(C)nc3ccc(OC)cc23)cc1 are the same in IFI: 0% for the first, 0% for the second.

Compared with CCOC(=O)C1=C(C)NC2=C(C(=O)CC(c3ccc(OC)c(OC)c3)C2)C1c1ccc(Cl)c(Cl)c1 (stereo not given), COc1ccc(-c2cc(C(F)(F)F)n3ncc(C(=O)Nc4cc(C)ccc4O)c3n2)cc1OC is lower in IFI: 5.95% for the first, 3.45% for the second.

First: CCCCCCCCC(=O)N(C)CCCNc1ccnc2cc(Cl)ccc12
Second: CCCCCCC[N+](CC)(CC)CCCCc1ccc(Cl)cc1
The IFI of the first is higher: 5.38% for the first, 4.51% for the second.

Going from CCCOc1ccc(C(=O)Nc2cccc(-c3nc4ncccc4o3)c2)cc1 to COc1ccc(NC(=O)c2c(Cl)nc(Cl)c([N+](=O)[O-])c2C)cc1, the IFI rises from 1.16% to 7.69%.

First: CCc1c(C(=O)N2CCN(C(=O)CCl)C(C)C2)cnn1-c1nc(-c2ccc(Br)cc2)cs1 (stereo not given)
Second: Cc1ccc(C)c(Nc2nc(NCC3CCCO3)c3ccccc3n2)c1 (stereo not given)
The IFI of the first is higher: 4.76% for the first, 2.98% for the second.

Going from CC(C)(C)NC(=S)Nc1cccc(Cl)c1Cl to COc1ccc(N)cc1NC(=O)c1ccc(Cl)cc1Cl, the IFI falls from 2.27% to 1.51%.

First: Oc1ccc(Br)cc1C=NNc1nc2ccccc2[nH]1
Second: N#Cc1ccccc1CN1CCC(Oc2cccc3onc(N)c23)CC1
The IFI of the first is lower: 1.43% for the first, 4.17% for the second.

First: CCCCCCN(C(=O)c1ccc(CCCCC)cc1)C(CC)c1nc2ccccc2c(=O)n1-c1ccccc1OC (stereo not given)
Second: COc1ccccc1N1CCN(c2ccc(NC(=O)/C=C/c3ccc([N+](=O)[O-])cc3)cc2C(=O)NCCCN(C)C)CC1
The IFI of the first is lower: 1.94% for the first, 10.1% for the second.

Compared with COc1cc(CN2CCN(c3ccccn3)CC2)cc(I)c1O, CN(C)CCN1CCN(c2ccnc3cc4ccccc4cc23)CC1 is higher in IFI: 0% for the first, 5.8% for the second.

Compared with Cc1sc2ncnc(Nc3ccncc3)c2c1C, CCN1CCCC1CNc1ncnc2c1[nH]c1ccc(C)cc12 (stereo not given) is higher in IFI: 2.7% for the first, 8% for the second.

Going from Oc1ccc(-c2ccnc3cc(Cl)ccc23)cc1CNC1CCCCC1 to O=C(C[n+]1cc(-c2ccccc2)n2c1CCC2)c1ccc(C2CCCCC2)cc1, the IFI rises from 4.31% to 12.5%.

Compared with C(#Cc1ccccc1)C[N+]1(CC#Cc2ccc(C#CC[N+]3(CC#Cc4ccccc4)CCCCC3)cc2)CCCCC1, COCCN(CC(=O)Nc1cc(C(C)(C)C)nn1-c1ccc(C)cc1)C(=O)COCc1ccccc1 is lower in IFI: 14.3% for the first, 1.87% for the second.

CCN(CC)c1nc(S)nc(NC(C)(C)C)n1 and O=[N+]([O-])c1ccc2nc(Nc3ccc(Cl)c(Cl)c3)c(Nc3ccc(Cl)c(Cl)c3)nc2c1 are the same in IFI: 0% for the first, 0% for the second.
